# In PubChem BioAssay AID488969 (Vanderbilt High Throughput Screening Facility, 2010):
# Whole data set: some 110,000 compounds, median “z-score” near -0.1, cut for the highest 2% near 2. The list shows a part of the results. Activity calls are given as the source filed them.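 Rule for the calls: active = z-score in the third read window above 3 or below -3; inactive = the rest.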
# Target: Metabotropic glutamate receptor 8 (Rattus norvegicus) (UniProt P70579)
# Assay: rat mGluR8 modulators via GIRK flux, primary screen, cell-based, thallium flux, HTS (AID 488969)
# Details: HEK293 rat mGluR8, GIRK (G protein-gated inwardly rectifying potassium channel) thallium flux, FluoZin2; at 10 µM; stronger effect = higher value; submaximal glutamate (EC20) added with thallium
# Chain of UniProt P70579 (P70579 whole entry, looked up): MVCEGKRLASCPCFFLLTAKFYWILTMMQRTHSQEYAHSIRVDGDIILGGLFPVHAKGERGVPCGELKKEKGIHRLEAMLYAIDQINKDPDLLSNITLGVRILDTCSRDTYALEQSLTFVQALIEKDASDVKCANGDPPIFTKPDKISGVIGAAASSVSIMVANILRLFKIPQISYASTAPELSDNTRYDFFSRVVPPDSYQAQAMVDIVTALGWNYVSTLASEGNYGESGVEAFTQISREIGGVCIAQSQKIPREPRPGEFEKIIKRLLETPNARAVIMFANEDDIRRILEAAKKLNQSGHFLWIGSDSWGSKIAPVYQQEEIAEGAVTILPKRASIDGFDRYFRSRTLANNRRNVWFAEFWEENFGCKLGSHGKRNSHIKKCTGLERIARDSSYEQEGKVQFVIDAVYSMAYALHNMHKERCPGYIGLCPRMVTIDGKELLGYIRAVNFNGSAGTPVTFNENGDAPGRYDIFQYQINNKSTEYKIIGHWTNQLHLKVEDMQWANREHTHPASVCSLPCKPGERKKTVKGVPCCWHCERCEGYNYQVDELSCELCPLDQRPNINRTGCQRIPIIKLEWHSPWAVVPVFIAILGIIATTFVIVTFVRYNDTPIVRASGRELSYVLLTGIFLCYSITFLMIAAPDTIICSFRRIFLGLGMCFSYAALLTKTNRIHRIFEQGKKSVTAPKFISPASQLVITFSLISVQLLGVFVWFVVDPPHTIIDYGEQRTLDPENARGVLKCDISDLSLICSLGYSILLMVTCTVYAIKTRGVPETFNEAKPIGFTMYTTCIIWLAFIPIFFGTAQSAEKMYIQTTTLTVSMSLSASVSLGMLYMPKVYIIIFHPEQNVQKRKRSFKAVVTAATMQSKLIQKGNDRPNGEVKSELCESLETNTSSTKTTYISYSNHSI
row,Compound,z-score
1,CC(C)C(=O)c1cn(CC(=O)NCc2ccco2)c2ccccc12,-0.253
2,COC(=O)c1ccccc1NC(=S)NC(=O)c1cccc2ccccc12,0.972
3,COC(=O)Cc1[nH]nc2c1C1(CCSCC1)C(C#N)=C(N)O2,-0.244
4,Cc1cc(NC(=O)COC(=O)C2CCN(S(=O)(=O)c3cccc(Cl)c3Cl)CC2)no1,0.313
5,O=C(CC(Nc1cccc(Cl)c1Cl)C(=O)OCC(=O)c1cccs1)c1ccccc1 (configuration not stated),-0.0748
6,CCN(CC)C(=O)c1sc2nc(N3CCOCC3)c3c(c2c1N)CCCC3,-0.134
7,CCn1ncc(C(=O)Nc2cc(C)on2)c1C,-0.0482
8,O=C(COc1ccc2ccccc2c1)NN1C(=O)c2ccccc2C1=O,0.492
9,Cc1ccc(S(=O)(=O)N2CCC(C(=O)N(C)C3CCS(=O)(=O)C3)CC2)cc1 (configuration not stated),-1.02
10,CCOC(=O)c1ccc(NC(=O)CN2C(=O)CCC2=O)cc1,-0.113
11,CCCC(=O)NC(=S)Nc1ccc(Cl)cn1,0.131
12,COc1ccc(C(=O)Nc2ccc(N3CCN(C(=O)C(C)C)CC3)cc2)cc1[N+](=O)[O-],0.462
13,Cc1ccc(C)c(S(=O)(=O)NC(CCC(N)=O)C(=O)O)c1 (configuration not stated),0.144
14,O=C(c1ccccc1)c1ccc2ccccc2n1,-0.0792
15,O=C(c1ccccc1)N1CCN(c2ncnc3sc4c(c23)CCC4)CC1,-0.295
16,CCc1ccccc1NC(=O)CSC1=C(C#N)C(c2ccc3c(c2)OCO3)C2=C(CCCC2=O)N1 (configuration not stated),-0.583
17,C=CCn1c(SCC(=O)N2CCc3ccccc3C2)nc2ccccc2c1=O,-2.34
18,c1ccc(Cn2nc(-c3ccccc3)nc2-c2ccccc2)cc1,-0.141
19,Cc1cccc(NC(=O)c2sc(C)nc2C)c1,-0.151
20,Cc1ccc(N(CC(=O)N/N=C/c2ccc(OC3CSC3)cc2)S(=O)(=O)c2ccccc2)c(C)c1,-0.326
21,COc1ccc(S(=O)(=O)N2CCOCC2)c(C)c1C,-0.156
22,CSc1nc(C)c(CCOC(=O)c2ccccc2)c(=O)[nH]1,0.0706
23,COc1cccc(C(=O)Nc2cc(C)ccc2NC(=O)COc2ccccc2)c1,-0.188
24,COc1cccc(/C(C)=N/NC(=O)c2ccc(N(C)C)cc2)c1,-0.258

row,Compound,z-score
1,OCCN1CCN(c2nc(-c3ccccc3)nc3c2oc2ccccc23)CC1,0.252
2,CC(C)OC(=O)c1ccc(Cn2nnc3ccccc3c2=O)cc1,-0.565
3,CCOc1ccc2nc(-c3ccccc3)[nH]c2c1,1.25
4,O=C(COC(=O)[C@H](Cc1ccccc1)NC(=O)c1ccco1)NCc1ccccc1,-0.495
5,COc1ccc(-n2c(C)cc(/C=N/Nc3nnc(C)n3N)c2C)cc1,0.00233
6,COC(=O)c1ccc(COc2ccccc2/C=N/NS(=O)(=O)c2ccccc2)cc1,-0.0877
7,COCCn1nnnc1C(c1cc2cc(C)ccc2[nH]c1=O)N1CCc2ccccc21 (configuration not stated),0.00622
8,Cc1cccc(C(=O)Nc2oc(-c3ccccc3)cc2C#N)c1,0.355
9,C=CCc1cccc2cc(C(=O)N(C)C)c(=O)oc12,0.176
10,O=C(COC(=O)c1ccc(S(=O)(=O)NCc2ccco2)cc1)NCCC1=CCCCC1,-0.143
11,Cc1nnc(SCC(=O)NC(C)(C)C)n1CCc1ccccc1,0.587
12,O=C(NNC(=O)c1ccccc1Cl)c1ccncc1,-0.0706
13,Fc1ccc(-c2csc3[n+]2CCS3)cc1,-0.0214
14,Cc1cc(C)nc(-n2nc(C)cc2Nc2ccccc2)n1,-0.115
15,CCCc1cc(=O)n2[nH]c(C)cc2n1,-0.851
16,COc1ccc(-c2nnc3n2N=C(C)CS3)cc1,-0.114
17,NS(=O)(=O)c1ccc(NC(=O)COC(=O)C2(c3ccc(F)cc3)CCCC2)cc1,-0.116
18,Cc1cccc2sc(NC(=O)CSCc3ccccc3)nc12,0.801
19,CCOc1ccc(C(=O)Nc2ccc(N3CCCC3)cc2)cc1,-0.201
20,CCS(=O)(=O)N1CCC(C(=O)NCCCN2CCC(Cc3ccccc3)CC2)CC1,-0.302
21,CCC(C)N1C(=O)CCC1C(=O)N1CCN(c2ccc(F)cc2)CC1 (configuration not stated),-0.174
22,CC(C)CNC(=O)COc1cccc(C(=O)NCc2ccccc2)c1,-0.218
23,Cc1ccc(-c2cnc(NC(=O)CCC(=O)N3CCCCC3)n2C)cc1,active: 4.3
24,CC(C)c1ccccc1NC(=O)COC(=O)Cc1cccc(C(F)(F)F)c1,-0.0324

row,Compound,z-score
1,COc1ccc(-c2onc3ccc(Cl)cc23)cc1,-0.408
2,O=C1CN(C(=O)c2ccc(Br)o2)C(c2ccc(F)cc2)c2cc(F)ccc2N1 (configuration not stated),-0.22
3,Cc1cc(C)cc(OCc2nnc(SCC(=O)c3ccccc3)o2)c1,-0.221
4,CCOC(=O)c1sc2ncn(C(CC)C(=O)OCC)c(=O)c2c1C (configuration not stated),-0.466
5,Cc1nn(-c2ccccc2)c2[nH]c(=O)c(CNCCN3CCOCC3)cc12,0.0368
6,CCOC(=O)C1CCCN(C(=O)c2ccccc2SCCOC)C1 (configuration not stated),0.188
7,Cc1sc2ncnc(SCc3ccco3)c2c1C,active: 3.43
8,Cc1c(Cl)c(C(F)(F)F)nn1CC(=O)NCc1ccccc1,0.493
9,CCOc1ccc2ccccc2c1/C=N/NC(=O)CNC(=O)C(c1ccccc1)c1ccccc1,0.157
10,CC1CC(C)CN(CCCNC(=O)c2ccc(CS(=O)(=O)Cc3ccccc3F)o2)C1 (configuration not stated),-0.9
11,Cc1c(C)c2cc(Cl)c(O)c(CN(C)C)c2oc1=O,1.04
12,Cc1cccc(C)c1OCC(=O)NNC(=O)c1ccoc1C,-0.00903
13,COc1ccc(Cn2nnnc2C(CC(C)C)N2CCN(c3ccccc3)CC2)cc1 (configuration not stated),-0.576
14,CC(C)(C)CC(=O)NC(=S)N1CCCCCC1,0.0762
15,COc1cc(OC)c(NC(=O)c2ccc(Br)o2)cc1Cl,-0.3
16,COC(=O)c1cn(NC(=O)C2CCCO2)c(=O)c2ccccc12 (configuration not stated),-0.246
17,CSc1nc(-c2ccc(C)cc2)nc(C(Cl)Cl)n1,0.109
18,CC(C)C(=O)Nc1cccc(C(=O)NCc2ccc3c(c2)OCO3)c1,-0.282
19,CCOc1cccc(/C(O)=C2/C(=O)C(=O)N(CCOC)C2c2ccco2)c1 (configuration not stated),0.0983
20,CC(C)CCNC(=O)NC(=O)CSc1nnc(-c2ccccc2F)n1N,-0.138
21,CCOc1ccc(C(CCc2ccccc2)NC(=O)c2ccc(OC)c(OC)c2)cc1OCC (configuration not stated),-0.35
22,CN(C)c1nc2n(c(=O)n1)CCS2,-1.38
23,Cc1nn(Cc2ccc(Cl)cc2)c2sc(C(=O)OCC(N)=O)cc12,0.107
24,Cc1ccc(OCCN2CCN(C(=O)CCC(=O)Nc3nnc(C)s3)CC2)cc1,-0.133
